Experimental data reported in PubChem BioAssay AID1745845 (National Center for Advancing Translational Sciences (NCATS), 2022).
The campaign covered roughly 360,000 compounds. About 2,600 (0.72%) were called active. This list was built around the results that the source calls inconclusive (neither active nor inactive); the mix of calls is not that of the screen. The call rests on the fitted dose curve; in most records, active means well fitted inhibition curve with a large enough effect; inconclusive means small, poorly fitted or top-dose-only effect; inactive means no such curve, though single readings can be large or run the other way. Potencies beside an inconclusive call are fits to weak or partial responses and may not hold up.

Test: Primary qHTS for Inhibitors of ATXN expression; further: nearly all actives have a fitted effect of over 55% in size
Details: HEK-293 ATXN2-luciferase reporter, luminescence, 24 h; activity change, negative = inhibition: at 57 µM (top of the series)
In short: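 qHTS (up to 57 uM final) was run with 24 h compound exposure of reporter cells at 37 °C. Each well was multiplexed: SteadyGlo luminescence measured ATXN2-luciferase expression after a fluorogenic Gly-Phe-AFC viability readout (25 uM final).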
On the % scale 0 is the no-effect control and ±100 the full control effect; potency means the concentration at half of the fitted maximal effect; tags describe the fitted curve by direction and shape.

SMILES | Potency | activity change, negative = inhibition
CCCOc1ccc(NC(=O)CC2C(=O)N(CC)C(=S)N2CCCN2CCN(Cc3ccccc3)CC2)cc1 (stereo not drawn) | inconclusive: 39.8 µM [inhibitor, single point] | –
COc1ccc(C)cc1NC(=O)CN(C)S(=O)(=O)c1cccs1 | – | inactive: -2.09%
N#Cc1ccccc1NC(=O)CSc1nc(-c2ccccc2)cc(C(F)(F)F)c1C#N | – | inactive: -12%
Cn1c2ccccc2c2cc(C(=O)NNC(=O)CCl)sc21 | inconclusive: 37.7 µM [inhibitor, single point] | –
Nc1[nH]c(C(=O)c2ccccc2)c(-c2ccccc2Br)c1C(=O)NCCc1c[nH]c2ccccc12 | inconclusive: 39.8 µM [inhibitor, single point] | –
CN(C(=O)CN(C)S(=O)(=O)c1ccc(F)cc1)c1c(N)n(Cc2ccccc2)c(=O)[nH]c1=O | – | inactive: 8.52%
Cc1sc2ccccc2[n+]1CC(=O)O | – | inactive: 0.53%
COc1cc2c(CCNC(C)=O)c[nH]c2cc1Cl | – | inactive: 3.77%
COc1ccc(-c2nnc(Sc3nc4ccccc4o3)c3ccccc23)cc1 | – | inactive: -2.83%
O=C1C=C(c2ccc(Cl)cc2)C(=O)N1Nc1ccccc1 | inconclusive: 39.8 µM [inhibitor, single point] | –
CCN(CC)S(=O)(=O)c1ccc(C(=O)NNC(=O)c2cccs2)cc1 | – | inactive: 8%
O=C(CCn1cnc2ccccc21)N/N=C/c1ccccc1O | inconclusive: 39.8 µM [inhibitor, single point] | –
COc1ccc(OCc2cccc(C(=O)O)c2)cc1 | active: 0.316 µM | –
Cc1ccc(-c2csc(NC(=S)NC(=O)c3ccco3)n2)cc1 | – | inactive: 2.22%
O=C1NC(=O)C2(CCC(C3CCCCC3)CC2)N1 (stereo not drawn) | – | inactive: 2.08%
c1ccc(COc2ncnc3c2ncn3CCCNC2CCN(Cc3ccccc3)CC2)cc1 | active: 25.1 µM | –
COc1ccc(NC(=O)c2nnn(Cc3cccc(F)c3)c2N)c(OC)c1 | inconclusive: 0.631 µM [inhibitor, partial curve, poor fit] | –
CN(C)C/C=C/C(O)(c1ccccc1)c1ccccc1 | – | inactive: -2.04%
CCOC(=O)C1=C(COc2ccc(F)cc2Cl)NC(=O)NC1c1cc(C)ccc1C (stereo not drawn) | – | inactive: -7.38%
O=C(NCCN1CCCCC1)c1cc(Cl)ccc1Cl | – | inactive: -8.24%
CC(=O)Nc1ccc(-c2cc(-c3ccccc3)nc(-c3ccccc3)n2)cc1 | inconclusive: 28.2 µM [inhibitor, single point] | –
CCOC(=O)CCC(NC(=O)c1ccc(Nc2nc3ccccc3nc2C(=O)OCC)cc1)C(=O)OCC (stereo not drawn) | active: 26.7 µM | –
O=C(NCCCN1CCOCC1)c1cc2c([nH]c3ccccc32)c(-c2cccc(Br)c2)n1 | inconclusive: 26.7 µM [inhibitor, single point] | –
